Measured values as given in the supplement of paper PMC10126150.
Values marked as one replicate rest on one cluster of the flow cell; about a third of the high ones do not repeat.

System: ATP
Assay: switch fluorescence ratio, 500 uM ATP over buffer (Cy3 cluster intensity, sum of 5 cycles each) (fold (ratio)); higher = stronger signal-on switching upon ATP binding; sequences stand for … in TCGTCGGCAGCGTCAGATGTGTATAAGAGACAGTTTTTTTTTTTTTTTTTTTTTTTTT…TC
Conditions: aptamer strand: ATP DNA aptamer (quencher-CACCTGGGGGAGTATTGCGGAGGAAGG + anchor), 100 nM annealed; ATP concentration: 500 uM; one replicate
How it was run: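 Per cluster, summed Cy3 intensity from the target cycles was divided by that from the buffer cycles to give the fluorescence ratio, then averaged per switch-domain sequence. Clusters outside 100-1000 RFU were excluded. The Cy3-labelled switching-strand clusters, on a modified Illumina MiSeq flow-cell, were annealed to 100 nM quencher-labelled ATP aptamer and imaged in selection buffer, then after 15 min with 500 uM ATP at 22 °C, for five cycles with NaOH stripping and re-annealing between them.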
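Note: ATP exposure 15 min at 22 °C before imaging.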

AGGCGGTAGA
switch fluorescence ratio: 0.99

CTTAGGATG
switch fluorescence ratio: 1.03

GAATTCAATT
switch fluorescence ratio: 1.07

ATTACTGGGT
switch fluorescence ratio: 0.968

ACCTTGCGAT
switch fluorescence ratio: 1.8

GCCGTCTTTC
switch fluorescence ratio: 0.981

GCGTCGGTGA
switch fluorescence ratio: 0.994

TCAGTTGGTA
switch fluorescence ratio: 0.97

TTGATATACC
switch fluorescence ratio: 0.999

GGTCACGAGC
switch fluorescence ratio: 1.02

CGCCACGGGC
switch fluorescence ratio: 1.04

GCCTCCAGTC
switch fluorescence ratio: 1.27

GTGGTCCATA
switch fluorescence ratio: 0.998

GAGCCCGTAT
switch fluorescence ratio: 1.12

CCTAAGTATT
switch fluorescence ratio: 1

TGGGCTTGTA
switch fluorescence ratio: 0.972

CCAGTTATTT
switch fluorescence ratio: 1

AGGTGATGCG
switch fluorescence ratio: 1

GTCCGTGGGT
switch fluorescence ratio: 1.01

GTAGCGAGGT
switch fluorescence ratio: 1.07

ACCGAAACAT
switch fluorescence ratio: 1.11

ACTTCACTTA
switch fluorescence ratio: 1.4

CAGGTAAATA
switch fluorescence ratio: 0.992

ATATGATCAT
switch fluorescence ratio: 0.963

GAGCTTCCTT
switch fluorescence ratio: 1.53

AAGTCCGCCC
switch fluorescence ratio: 1.46

CCTCTATGAC
switch fluorescence ratio: 3.54

CTTATGGCTC
switch fluorescence ratio: 0.999

TTCGCCGGAA
switch fluorescence ratio: 1.14

GTTGGAACGG
switch fluorescence ratio: 0.978

CCCGGAGTTA
switch fluorescence ratio: 1.34

ACATCAGACC
switch fluorescence ratio: 1.04

TTGAAATCGG
switch fluorescence ratio: 0.999

GATGCCCTGC
switch fluorescence ratio: 1.04

GGGCATC
switch fluorescence ratio: 1.07

CATTCGGCCA
switch fluorescence ratio: 1.03

GCTGGTGCGC
switch fluorescence ratio: 0.96

GAGTCCGTGC
switch fluorescence ratio: 1.41

CAAAGGTTAC
switch fluorescence ratio: 0.984

GAAATATTCC
switch fluorescence ratio: 1.31

TTCAATGGAG
switch fluorescence ratio: 0.977

GGGCCCGCAG
switch fluorescence ratio: 1.11

GGTAAAAACT
switch fluorescence ratio: 0.983

CTCGTCTCGT
switch fluorescence ratio: 0.974

CCTATAGTCA
switch fluorescence ratio: 1.07

GTCGTAAGGG
switch fluorescence ratio: 1.01

GTGATGCGG
switch fluorescence ratio: 1.02

AGGCTAATCT
switch fluorescence ratio: 0.992

CCGAATTCGC
switch fluorescence ratio: 1.06

TGGCTTGATG
switch fluorescence ratio: 1

GGTGACGATA
switch fluorescence ratio: 1.03

TTAGAATGGA
switch fluorescence ratio: 1.02

TTAGTGGTGG
switch fluorescence ratio: 1.01

TAATCAGGG
switch fluorescence ratio: 0.946

GCTCTGGAAG
switch fluorescence ratio: 1.07

GCCACATGTT
switch fluorescence ratio: 1.01

GAAGGTTAGA
switch fluorescence ratio: 0.986

GACGTTTAGC
switch fluorescence ratio: 1.01

TTTTTCCAAT
switch fluorescence ratio: 1.03

CGCGTATAAG
switch fluorescence ratio: 1.01

TGGTACTCGG
switch fluorescence ratio: 0.973

ACGATTTCTG
switch fluorescence ratio: 1.02

AGTGTAACGT
switch fluorescence ratio: 1.03

TCGGTACAAT
switch fluorescence ratio: 1.06

GAAAGGACAA
switch fluorescence ratio: 1.07

CGTGCACAAG
switch fluorescence ratio: 0.981

TTGTTCAGG
switch fluorescence ratio: 1.03

CGCATCGGGT
switch fluorescence ratio: 1

TCTAGGCTGA
switch fluorescence ratio: 1.02

CACGTCATTA
switch fluorescence ratio: 1.21

ACTGTTGTCG
switch fluorescence ratio: 0.967

GCAGCATCG
switch fluorescence ratio: 1.07

TTATTAGACA
switch fluorescence ratio: 1.04

CAGTTTTGTC
switch fluorescence ratio: 1.07

GTGCCAATTT
switch fluorescence ratio: 1.01

TATTTCAGAT
switch fluorescence ratio: 0.992

TGTTGATTGG
switch fluorescence ratio: 1.38

GAGATTTAAT
switch fluorescence ratio: 0.993

AGTAGATGAC
switch fluorescence ratio: 0.997

CCGTACGGCA
switch fluorescence ratio: 1.09

GTGTGCCTTG
switch fluorescence ratio: 0.97

ATGAACCG
switch fluorescence ratio: 1.05

TTTTCTATCG
switch fluorescence ratio: 0.973

AGGCCAAGCT
switch fluorescence ratio: 1.01

GCTGTGCCTT
switch fluorescence ratio: 0.974

GGTCCATCAA
switch fluorescence ratio: 1.02

TTCCCCGCGT
switch fluorescence ratio: 4.65

GTGGAGCTGG
switch fluorescence ratio: 0.986

TAGCAGCAAA
switch fluorescence ratio: 1.26

CATAACCAGA
switch fluorescence ratio: 1.02

TTGCCGATGT
switch fluorescence ratio: 1.05

TCAAAAAGCA
switch fluorescence ratio: 1

CACCAGATTA
switch fluorescence ratio: 0.974

TCCGGTGGGC
switch fluorescence ratio: 0.957

GACTAACCGG
switch fluorescence ratio: 1.02

ATCGTCGCTT
switch fluorescence ratio: 0.996

ACGGGAGTCT
switch fluorescence ratio: 0.952

CCTGCTTTT
switch fluorescence ratio: 1.01

CGGGGTATG
switch fluorescence ratio: 0.96

GCAGGTAACG
switch fluorescence ratio: 1.02

TCTTGTAATT
switch fluorescence ratio: 0.989

ACCTGGCTC
switch fluorescence ratio: 1.26

TGAGGTGGCG
switch fluorescence ratio: 0.945

GACTCACTGA
switch fluorescence ratio: 1.16

CTTGCTCGCA
switch fluorescence ratio: 1.67

CCCGTACCCA
switch fluorescence ratio: 1.08

ATTGGTTTG
switch fluorescence ratio: 0.976

CCGGCTAAG
switch fluorescence ratio: 1.08

GTCTGGTTCC
switch fluorescence ratio: 1.04

TGGACGATTG
switch fluorescence ratio: 1.04

GTGGGAACAA
switch fluorescence ratio: 1.05

GCACGGAGGA
switch fluorescence ratio: 1.11

GTCGGCTGTT
switch fluorescence ratio: 1

CGCTTTTCAC
switch fluorescence ratio: 1.36

AAGGGGCTAG
switch fluorescence ratio: 1.02

CCGCGGTCAA
switch fluorescence ratio: 2.53

AAAACTGAAG
switch fluorescence ratio: 1.03

GATATAACAG
switch fluorescence ratio: 0.986

TATTGGCATC
switch fluorescence ratio: 0.952

TAAGACACGC
switch fluorescence ratio: 1.03

AGCGTTATCT
switch fluorescence ratio: 0.987

GCATGGCATG
switch fluorescence ratio: 0.968

CCCCATCGTA
switch fluorescence ratio: 1.01

CAGATATAGG
switch fluorescence ratio: 1.01

AGGGGTATAA
switch fluorescence ratio: 0.942

GGGTCACAAC
switch fluorescence ratio: 0.978

AAGCTAGTA
switch fluorescence ratio: 1.03

CAAGAGAGCT
switch fluorescence ratio: 0.978

CAGTTTTTCA
switch fluorescence ratio: 0.976

CCTATGGAAT
switch fluorescence ratio: 1.35

ATCAGGATGG
switch fluorescence ratio: 1.05

GACGGGGGAG
switch fluorescence ratio: 0.983

TAACAATGAT
switch fluorescence ratio: 0.976

ATATCAAAGG
switch fluorescence ratio: 0.996

TATGAAAATA
switch fluorescence ratio: 0.953

AACCGGCAAC
switch fluorescence ratio: 1.45

CACACGCGA
switch fluorescence ratio: 2.33

TAGTCTGAGT
switch fluorescence ratio: 1.02

GACCGTTGT
switch fluorescence ratio: 0.996

CCTGTTACTG
switch fluorescence ratio: 1.05

CAGGGGCGTA
switch fluorescence ratio: 1.03

AATTTAGTGT
switch fluorescence ratio: 0.991

CAGTCACAGC
switch fluorescence ratio: 1.06

TTTGGTAGAC
switch fluorescence ratio: 1.01

CATCAGTGCG
switch fluorescence ratio: 1.05

GCGGTTGCTT
switch fluorescence ratio: 1

TTGAATTGTA
switch fluorescence ratio: 0.985

TTTCTAAGGT
switch fluorescence ratio: 1.03

GACGGTGATC
switch fluorescence ratio: 1.03

TTAGGAGTAA
switch fluorescence ratio: 0.935

TCCGGTCTTT
switch fluorescence ratio: 0.984

GCTCATACAC
switch fluorescence ratio: 1.08

GGAGTGTCAT
switch fluorescence ratio: 0.982

TTTCACTCAG
switch fluorescence ratio: 0.99

CAGTTTTTGA
switch fluorescence ratio: 1.02

TAAAAACACC
switch fluorescence ratio: 1.15

ACTCTGTTGT
switch fluorescence ratio: 1.02
